Data from PubChem BioAssay AID894 (National Center for Advancing Translational Sciences (NCATS), 2007).
Among all 150,000 compounds or so, about 6,500 (4.3%) were called active. The inconclusive results got no clear call from the source; some entries with a clear call stand among them for comparison. Calls come from the whole dose curve; as a rule, active = well fitted inhibition curve with a large enough effect (not every such curve was filed as active); inconclusive = small, poorly fitted or top-dose-only effect, or another doubt; inactive = no such curve, though single readings can be large or run the other way. Potencies beside an inconclusive call are fits to weak or partial responses and may not hold up.

molecular target: 15-hydroxyprostaglandin dehydrogenase [NAD(+)] (Homo sapiens) (UniProt P15428); assay: qHTS Assay for Inhibitors of HPGD (15-Hydroxyprostaglandin Dehydrogenase); details: purified HPGD, NADH fluorescence kinetic, PGE2 substrate; activity change, negative = inhibition: stronger effect = lower value
How it was run: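 20 nM HPGD preincubated 15 min at room temperature with compound in 50 mM Tris-HCl pH 8, 0.01% Tween 20. Started with 1 mM NAD+ and 30 uM prostaglandin E2; NADH fluorescence (360/450 nm) read 5 times over 30-s intervals, last minus first.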
% is set by controls: 0 for no effect and ±100 for the full control effect; potency is the fitted concentration of half-maximal effect; tags give direction and shape of the fitted curve.

Sequence of UniProt P15428 (P15428 whole entry, looked up): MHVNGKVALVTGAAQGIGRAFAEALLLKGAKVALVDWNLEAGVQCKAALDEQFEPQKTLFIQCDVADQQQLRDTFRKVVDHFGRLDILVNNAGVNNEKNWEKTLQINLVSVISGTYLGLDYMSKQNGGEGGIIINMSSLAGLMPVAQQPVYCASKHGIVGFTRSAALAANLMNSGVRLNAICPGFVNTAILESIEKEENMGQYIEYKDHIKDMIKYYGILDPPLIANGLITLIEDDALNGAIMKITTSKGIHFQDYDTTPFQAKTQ

Activity change, negative = inhibition, inactive:
Cc1cc(C(=O)COC(=O)Cc2n[nH]c(=O)c3ccccc23)c(C)n1-c1ccc2c(c1)OCO2 -19.4%
CCOC(=O)c1c(NC(=O)CSc2nncs2)sc(C)c1-c1ccccc1 -6.39%
CSc1ccccc1NC(=O)c1cccnc1 -17.5%
Cc1ccc(C)n1-c1ccc(N2CCOCC2)c(Br)c1 -3.9%
CCCCCCCCCCOCCC(=O)O -3.31%
COc1ccc(-c2csc(=Nc3ccccc3)n2CCO)cc1 -16.4%
COC(=O)NNC(=O)CCCOc1ccc(Cl)cc1Cl -18.2%
CCN1CCc2c(sc(NC(=O)Nc3ccc(Cl)c(Cl)c3)c2C(N)=O)C1 -17%
COC(=O)C1CSc2[nH]c(=O)sc2C1c1ccc(OC)c(OC)c1 (stereo not drawn) 3.41%
COc1ccc(OC)c(C2SCCN2S(C)(=O)=O)c1 (stereo not drawn) -8.98%
COc1ccc(C(=O)NCC(=O)OCC(=O)Nc2c(C)n(C)n(-c3ccccc3)c2=O)cc1 5.22%
COC(=O)N1CCC2(CC1)CCN(c1ncccn1)CC2 -10.6%
O=C(Nc1ccc(Br)cc1F)c1cccnc1 -9.14%
NC(=O)C1CCN(C(=O)COc2ccc(S(=O)(=O)NCc3ccccc3)cc2Cl)CC1 -13%
COC(=O)Cn1c(C(=O)N2CCCC2)cc2c1C[C@H]1CN(C(=O)c3ccccc3)[C@@](Cc3ccccc3)(C(=O)OC)[C@@H]21 -2.39%
Cn1nnnc1SCC(=O)N1c2ccccc2Sc2ccccc21 -10.3%
COC(C(=O)NC1CC1)c1ccccc1 (stereo not drawn) -2.07%
Cc1ccccc1OCC(=O)NNC(=S)NC(=O)c1ccccc1[N+](=O)[O-] -1.53%
CN(C)c1ccccc1CN1CCCN(Cc2ccccc2N(C)C)C1c1ccncc1 -9.46%
CCCCC(CC)C(=O)Nc1ccc(Nc2ccccc2)cc1 (stereo not drawn) -10.5%
COc1ccc(N2C(=O)CC(N3CCN(C4CCc5ccccc5C4)CC3)C2=O)cc1 (stereo not drawn) -3.41%
CCNC(=O)CSc1nnc(-c2cc(-c3ccc(Cl)cc3)nc3ccccc23)o1 -19.1%

Potency, active:
O=C(CSC1=NS(=O)(=O)c2ccccc21)Nc1ccccc1 15.8 µM
S=C(Cc1cccnc1)N1CCOCC1 22.4 µM
O=C(NCCSc1ccccc1)c1ccccc1Cl 12.6 µM
COc1ccccc1C(=O)O/N=C(/C)c1ccc(N2C(=O)C3CCCCC3C2=O)cc1 (stereo not drawn) 25.1 µM
CCc1c(C)sc(NC(=O)c2cc(C)no2)c1C#N 31.6 µM
CC(C)c1ccc(Nc2ncccc2C#N)cc1 25.1 µM
COc1ccc(CC(=O)N2CCCC(C)C2)cc1 (stereo not drawn) 28.2 µM
CCc1nnc(NS(=O)(=O)c2ccc(N=Cc3c(C)[nH]n(-c4ccc(C)cc4)c3=O)cc2)s1 25.1 µM
O=C(CCCCCN1C(=O)c2ccccc2C1=O)NC1CCCC1 4.47 µM
COc1ccc(-c2[nH]nc3c2C(c2ccoc2)C(C#N)=C(N)O3)cc1 (stereo not drawn) 12.6 µM
CCn1c(SCC(=O)c2ccccc2)nnc1-c1cnccn1 17.8 µM
O=C(/C=C/C=C/c1ccc2c(c1)OCO2)N1CCCCC1 15.8 µM
CC(C)C1O/C(=N/C(=O)Nc2ccc(Cl)c(Cl)c2)NC1=O (stereo not drawn) 20 µM
CC(C)(C)NS(=O)(=O)c1cccc(S(=O)(=O)c2cccc(S(=O)(=O)NC(C)(C)C)c2)c1 20 µM

Potency, inconclusive:
COc1ccc(S(=O)(=O)Nc2ccc3c(c2)OCO3)cc1Cl 35.5 µM [inhibitor, partial curve]
Cc1ccc(-c2nc3cnccn3c2Nc2ccccc2)o1 25.1 µM [inhibitor, partial curve]
CCOC(=O)c1sc(NC(=O)CN(CC(C)C)CC(C)C)c(C(=O)OCC)c1C 39.8 µM [inhibitor, single point]
Cc1ccc2nc(-c3ccc(NC(=O)CSc4ccccc4)cc3)[nH]c2c1 28.2 µM [inhibitor, single point]
Cc1cc(C)c2c(n1)nn1c(-n3ccnc3)cc(C)nc21 28.2 µM [inhibitor, partial curve]
C/C=C(/C)C(=O)O[C@@H]1[C@H](OC(=O)C=C(C)C)c2c(ccc3ccc(=O)oc23)OC1(C)C 35.5 µM [inhibitor, single point]
Cc1ccc(-c2cc(C(=O)Nc3nn[nH]n3)c3ccccc3n2)c(C)c1 35.5 µM [inhibitor, single point]
Cc1ccc(C(NC(=O)/C=C\c2ccc3c(c2)OCO3)C(=O)Nc2ccc3c(c2)OCO3)cc1 (stereo not drawn) 31.6 µM [inhibitor, partial curve]
COc1cc(S(=O)(=O)N2CCOCC2)ccc1NC(=O)c1cc2c(s1)CCC2 35.5 µM [inhibitor, single point]
COc1ccc(CN2CCN(c3cc(C)nc4c5c(C)cc(C)nc5nn34)CC2)cc1F 7.08 µM [inhibitor, partial curve]
COc1cc2c(cc1NC(=S)Nc1ccccc1C)oc1ccccc12 25.1 µM [inhibitor, partial curve]
c1ccc(CNc2cnccn2)cc1 20 µM [inhibitor, partial curve]
Cc1nn(Cc2ccccc2Cl)c2sc(C(=O)NCc3ccc4c(c3)OCO4)cc12 22.4 µM [inhibitor, partial curve]
N#CCC(CNc1ncc(C(F)(F)F)cc1Cl)OC(=O)c1cccc(C(F)(F)F)c1 (stereo not drawn) 28.2 µM [inhibitor, single point]
COc1ccc(S(=O)(=O)Nc2ccccc2C(=O)NC(C)(C)C)cc1OC 28.2 µM [inhibitor, partial curve]
O=C1/C(=C\c2ccc(-c3ccccc3[N+](=O)[O-])o2)C(c2ccccc2)=NN1c1ccccc1 11.2 µM [inhibitor, partial curve]
CCOc1cc(C(=O)OCC(=O)Nc2ccc(SC(F)F)cc2)cc(OCC)c1OCC 10 µM [inhibitor, partial curve]
CCOC(=O)NC(NCc1ccccc1Cl)(C(F)(F)F)C(F)(F)F 39.8 µM [inhibitor, partial curve]
O=C(Nc1ccccc1N1CCN(C(=O)c2ccc(Cl)cc2)CC1)c1ccc(Br)cc1 39.8 µM [inhibitor, single point]
O=C(O)CCC(=O)N1CCN(c2ccc(C(=O)c3ccc(F)cc3)cc2)CC1 28.2 µM [inhibitor, partial curve]
COc1ccc(-c2ccc(S(=O)(=O)NCC3CCCO3)cc2)cc1 (stereo not drawn) 25.1 µM [inhibitor, partial curve]
Fc1ccc(CNc2nc3ccccc3n3cnnc23)cc1 31.6 µM [inhibitor, partial curve]
COc1ccc(C2C3=C(CCCC3=O)Nc3nc(SCc4ccc(C(=O)O)cc4)nn32)cc1OC (stereo not drawn) 31.6 µM [inhibitor, single point]
Cc1ccc(N2CCCn3c2cc(C)c(C#N)c3=O)cc1C 25.1 µM [inhibitor, partial curve, poor fit]
CNc1sc(C(=O)c2ccc(F)cc2)c(N)c1-c1nc2ccccc2s1 25.1 µM [inhibitor, single point]
CC(C)c1nnc(NC(=O)CCC(=O)NCc2cccs2)s1 39.8 µM [inhibitor, single point]
CCNS(=O)(=O)c1ccc2c3c(cccc13)C(=O)N2 28.2 µM [inhibitor, partial curve]
C/C(=N\NC(=O)C(=O)Nc1cccc(C(F)(F)F)c1)c1ccc(Cl)s1 3.16 µM [inhibitor, full curve, poor fit]
Cc1ccc(-n2ncc3c(SCc4cccc(C)c4)ncnc32)cc1 31.6 µM [inhibitor, single point]
C=CCn1c(-c2oc3nc(-c4ccccc4)cc(-c4ccccc4)c3c2N)n[nH]c1=S 15.8 µM [inhibitor, partial curve]
CCCCCC(=O)Nc1ccc(-c2csc(C)n2)cc1 17.8 µM [inhibitor, partial curve]
CCOC(=O)c1c(NC(=O)c2ccc(N3C(=O)[C@@H]4[C@H](C3=O)[C@H]3C=C[C@@H]4C3)cc2)sc2c1CCCC2 31.6 µM [inhibitor, partial curve]
Cc1c(C(=O)OC2CCCCC2)sc2nc[nH]c(=O)c12 20 µM [inhibitor, single point]
O=C(O/N=C(\c1ccccc1)c1ccccn1)c1cccc2ccccc12 35.5 µM [inhibitor, single point]
Cc1nc(N2CCN(C(=O)COc3ccccc3)CC2)c2c(C)c(C)sc2n1 7.94 µM [inhibitor, partial curve]
COc1ccc(C2CC(=O)Nc3sc(=N)c4c(N)c(C#N)c(N)nc4c32)cc1OC (stereo not drawn) 39.8 µM [inhibitor, single point]
CC(C)Oc1ccc(C(=O)NC2CCCCC2)cc1 17.8 µM [inhibitor, partial curve, poor fit]
